Measured values published in article PMC4336329 (PLoS ONE, 2015).
Among all 310,000 compounds or so, about 14,000 (4.5%) showed an effect of 50% or more. The effect is printed as a negative number. The list shows a part of the results.

biological target: human ether-à-go-go-related gene (hERG) potassium channel (human, UniProt Q12809); assay: primary screen, population patch clamp on CHO cells stably expressing hERG
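Note: peak tail current of the secondary pulse compared with the same well before compound.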

human ether-à-go-go-related gene (hERG) potassium channel, sequence (Q12809 whole entry, looked up): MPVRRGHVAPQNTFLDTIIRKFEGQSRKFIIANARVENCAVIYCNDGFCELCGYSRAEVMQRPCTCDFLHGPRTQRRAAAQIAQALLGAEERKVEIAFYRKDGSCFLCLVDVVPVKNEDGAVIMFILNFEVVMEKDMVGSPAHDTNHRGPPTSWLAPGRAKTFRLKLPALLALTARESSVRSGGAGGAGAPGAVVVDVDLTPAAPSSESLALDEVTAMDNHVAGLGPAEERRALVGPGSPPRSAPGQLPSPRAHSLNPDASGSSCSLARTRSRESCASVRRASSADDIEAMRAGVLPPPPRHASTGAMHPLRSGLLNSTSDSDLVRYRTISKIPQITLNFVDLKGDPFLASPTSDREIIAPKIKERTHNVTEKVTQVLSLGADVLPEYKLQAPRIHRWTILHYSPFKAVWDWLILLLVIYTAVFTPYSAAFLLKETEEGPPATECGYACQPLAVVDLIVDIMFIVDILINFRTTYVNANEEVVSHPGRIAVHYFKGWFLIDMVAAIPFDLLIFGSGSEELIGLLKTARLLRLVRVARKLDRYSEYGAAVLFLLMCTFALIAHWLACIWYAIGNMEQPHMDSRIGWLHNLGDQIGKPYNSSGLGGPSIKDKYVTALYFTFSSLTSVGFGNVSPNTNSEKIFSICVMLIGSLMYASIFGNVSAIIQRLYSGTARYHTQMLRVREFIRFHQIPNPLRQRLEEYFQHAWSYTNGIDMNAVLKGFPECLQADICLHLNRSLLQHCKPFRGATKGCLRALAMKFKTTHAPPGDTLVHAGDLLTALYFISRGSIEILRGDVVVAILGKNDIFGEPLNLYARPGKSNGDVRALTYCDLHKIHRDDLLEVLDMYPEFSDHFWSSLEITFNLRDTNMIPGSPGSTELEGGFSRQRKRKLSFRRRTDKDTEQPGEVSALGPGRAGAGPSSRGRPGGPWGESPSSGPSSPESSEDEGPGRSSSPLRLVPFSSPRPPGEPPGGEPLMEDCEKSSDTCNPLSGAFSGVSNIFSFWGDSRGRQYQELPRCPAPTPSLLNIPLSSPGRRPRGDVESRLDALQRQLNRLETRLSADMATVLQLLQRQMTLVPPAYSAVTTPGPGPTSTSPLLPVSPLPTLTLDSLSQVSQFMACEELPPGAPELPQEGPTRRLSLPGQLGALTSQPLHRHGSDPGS

Row | SMILES | hERG current change (%, negative = inhibition) at 10uM [%]
1 | Cc1ccc(NC(=O)/C(=C/c2ccc([N+](=O)[O-])cc2)NC(=O)c2ccccc2)cc1 | -12
2 | CCCc1cc(=O)n2[nH]c(-c3cc(OC)c(OC)c(OC)c3)nc2n1 | 5.93
3 | O=C1CCN(C(=S)NCc2ccccc2)CC1 | 13.7
4 | O=S(=O)(NNc1ccc(F)cc1F)c1cccc(Cl)c1 | 9.49
5 | N#Cc1ccc(NC(=O)COC(=O)CCc2ccc(S(=O)(=O)N3CCCCC3)cc2)cc1 | -23.8
6 | O=C(NCCc1ccccc1F)/C(=C/c1cccnc1)NC(=O)c1ccccc1 | -52.2
7 | CCCCCOC(=O)C1=C(C)Nc2nnnn2C1c1ccccc1Cl (stereo not shown) | 15.5
8 | N#CC(c1ccc(Cl)nn1)c1ccc(Cl)cc1Cl (stereo not shown) | -5.74
9 | CCCC(=O)Nc1nc2c(OC)ccc(OC)c2s1 | -6.42
10 | Cc1ccc(NC(=O)N(CCC(=O)O)Cc2ccccc2)cc1 | 12.2
11 | O=C(CCCn1c(=S)[nH]c2ccc(Br)cc2c1=O)NCC1CCCO1 (stereo not shown) | 15.8
12 | CCc1nc(SCC(=O)Nc2cc(C)on2)c2c(=O)n(C)c(=O)n(C)c2n1 | 20.6
13 | COc1ccc(CCC(=O)OCC(=O)N(CC(C)C)c2c(N)n(Cc3ccccc3)c(=O)[nH]c2=O)cc1 | 0.813
14 | Fc1ccc(CSc2ccc3nnc(-c4cccnc4)n3n2)cc1 | -71.5
15 | COc1cc2c(cc1OC)C(C)N(C(=O)c1cc3ccccc3o1)CC2 (stereo not shown) | -36.3
16 | N#Cc1c2n(c(=S)n(-c3ccc(F)cc3)c1=O)CCCCC2 | 4.03
17 | CCOC(=O)c1ccc(Oc2coc3cc(O)ccc3c2=O)cc1 | 17.6
18 | COc1ccc(-c2nnc(N(C)C(=O)c3cccnc3)s2)cc1 | -0.307
19 | Cc1ccc(C)c(S(=O)(=O)N2CCN(C(=O)[C@@H]3CCCN3C(=O)c3cccs3)CC2)c1 | -17
20 | CCCc1nc(SCC(=O)N2c3ccccc3CC2C)c2c(C)c(C)sc2n1 (stereo not shown) | 14.1
21 | O=C(CSC(=S)N1CCOCC1)Nc1ncc2c(n1)CC(c1ccco1)CC2=O (stereo not shown) | 4.95
22 | O=C(NC1CC1)C1CCN(c2ncccn2)CC1 | -2.31

Row | SMILES | hERG current change (%, negative = inhibition) at 10uM [%]
23 | O=c1[nH]n(-c2ccccc2Cl)c(=O)c2ccccc12 | 11.5
24 | COc1ccc(-c2nnc(COc3ccc4ccccc4c3)o2)cc1OC | -3.08
25 | Cc1ccc(NC2CCCN(C(=O)c3cn4cc(Cl)ccc4n3)C2)cc1C (stereo not shown) | 1.82
26 | CN(CC(=O)NNC(=O)Cc1ccccc1F)S(=O)(=O)c1ccc(Cl)cc1 | -8.76
27 | CCC1(c2ccccc2)NC(=O)N(CC(=O)N(C)CC(=O)Nc2c(C)cccc2C)C1=O (stereo not shown) | 19
28 | COc1cc(/C=N/NC(=O)C(=O)NCC2CCCO2)cc(Cl)c1O (stereo not shown) | 31.8
29 | CC(C)NC(=O)NC(=O)COC(=O)c1ccc([N+](=O)[O-])cc1Cl | -25.1
30 | CCOC(=O)c1c(NC(=O)CN2C(=O)CN(C)C2=O)sc(C)c1C | 4.06
31 | CC(=O)c1ccc(N2CCN(C(=O)CCCn3c(=O)[nH]c4ccccc4c3=O)CC2)cc1 | 15.3
32 | CC(=O)C1=C(O)C(=O)N(CCC(=O)O)C1c1ccccc1Cl (stereo not shown) | -6.52
33 | Cn1nc(-c2ccc3c(c2)OCCO3)c2ccccc2c1=O | 2.43
34 | Cc1ccc(S(=O)(=O)N(CC(=O)N/N=C/c2ccco2)c2cc(Cl)cc(Cl)c2)cc1 | -10.7
35 | CCCc1nc(SCC(=O)NCc2ccco2)c2c(=O)n(C)c(=O)n(C)c2n1 | 0.943
36 | O=C(Nc1cc(C(F)(F)F)ccc1-n1cncn1)c1ccc(Br)cc1 | 4.25
37 | COc1ccc(C2C(C#N)=C(C)NC3=C2C(=O)CC(C)(C)C3)c(OC)c1 (stereo not shown) | -6.3
38 | COC(=O)c1cc(Sc2cccc(Cl)c2Cl)ccn1 | -20.8
39 | CCOc1ccc(N2CC(C(=O)Nc3ccc(S(=O)(=O)Nc4nccs4)cc3)CC2=O)cc1 (stereo not shown) | 13.6
40 | O=C(NC1CC1)C1=C[C@@H](c2ccccc2)C[C@@H](OCCCCO)O1 | 9.71
41 | COc1ccc(NS(=O)(=O)c2c(C(=O)N3CCCCCC3)c(C)n(C)c2C)cc1OC | 17.4
42 | Cc1ncc(CNC(=O)N(CCCl)N=O)c(N)n1.Cl | 5.11
43 | O=C1OC(C(=O)NCc2ccccc2)Cc2ccccc21 (stereo not shown) | 7.98
44 | O=c1[nH]c2cc3c(cc2cc1CN(Cc1ccco1)C(=S)NCCCN1CCOCC1)OCCO3 | -14.7

Row | SMILES | hERG current change (%, negative = inhibition) at 10uM [%]
45 | CCOC(=O)Cc1cc(=O)n2[nH]c(C)c(-c3ccccc3OC)c2n1 | 12
46 | O=[N+]([O-])c1cccnc1NCCc1c[nH]c2ccccc12 | 17.3
47 | CCn1c(=O)n(CC)c2cc(S(N)(=O)=O)c(C)cc21 | 2.51
48 | COC(=O)c1[nH]c2ccccc2c1NC(=O)CN1CCC(C(N)=O)(N2CCCCC2)CC1 | -35.1
49 | OC1COC(OCc2ccccc2)C(O)C1O (stereo not shown) | 19.3
50 | COc1ccc(CNC(=O)[C@H](C)[C@@H]2C[C@@]2(C)[C@@H](NC(=O)OCc2ccccc2)c2ccccc2)cc1OC | -35.7
51 | O=C(NNS(=O)(=O)c1cccc(Cl)c1Cl)c1cccc(S(=O)(=O)N2CCOCC2)c1 | -16.9
52 | COc1cccc(C2C3=C(CC(C)(C)CC3=O)OC(N)=C2[N+](=O)[O-])c1 (stereo not shown) | 3.82
53 | CN1C=CC=C/C1=C(\C#N)c1nc2ccccc2[nH]1 | -28.5
54 | COc1ccc(N)cc1-n1c(C)ccc1C | 14.5
55 | COC(=O)c1c(C)[nH]c(C(=O)/C=C/c2ccccc2F)c1C | 7.77
56 | COc1ccc(S(=O)(=O)NC(C)CCc2ccccc2)cc1 (stereo not shown) | -3.49
57 | Cc1ccc(-n2c(SCC(N)=O)nnc2-c2ccccn2)cc1 | 1.91
58 | N=C(N)n1c(N)nc2ccccc2c1=O | 15
59 | c1ccc(N2CCN(c3nc4cc5c(cc4s3)OCO5)CC2)cc1 | -11.2
60 | O=C(O)C1CC(=O)N(c2ccc(OCc3ccc(Cl)cc3Cl)cc2)C1 (stereo not shown) | -13
61 | CN1CCN(C(=O)c2ccc(Oc3ccc([N+](=O)[O-])cc3)cc2)CC1 | -50.6
62 | Cc1ccc(S(=O)(=O)N/N=C/c2ccc(O)c(O)c2)cc1[N+](=O)[O-] | 18
63 | CN(CC(=O)Nc1ccc(F)cc1)C(=O)CCc1ccccc1 | 10.6
64 | CCC(C)C(=O)Nc1nc(C)c(-c2csc(Nc3cc(OC)ccc3OC)n2)s1 (stereo not shown) | 6.52
65 | CCn1nc(C)cc1Nc1ccccc1 | -8.17
66 | CN1CCN(C(=O)c2ccc(CS(=O)Cc3ccc(Cl)cc3)o2)CC1 (stereo not shown) | 13.1

Row | SMILES | hERG current change (%, negative = inhibition) at 10uM [%]
67 | CNC(=O)C(=O)Nc1cc2c3c(c1)C(C)C(=O)N3CCC2 (stereo not shown) | 7.26
68 | CCSC1=NCCN1S(=O)(=O)c1ccccc1 | -4.34
69 | CCOc1ccc(CN2CCN(Cc3c[nH]c4ccccc34)CC2)cc1.O=C(O)C(=O)O | -84.4
70 | CN1CCC(O)(c2ccc(Cl)cc2)C(C(=O)c2ccc(Cl)cc2)C1 (stereo not shown) | -67.7
71 | Cc1ccc[n+](/C(C(=S)NCc2ccco2)=C(/[O-])c2ccccc2Cl)c1 | -24.6
72 | COc1cc(CO)ccc1OCC(=O)N1CCc2ccccc21 | 9.76
73 | O=C(O)Cn1cc(/C=C2\C(=O)NC(=O)N(c3ccc(F)cc3)C2=O)c2ccccc21 | 12.4
74 | Cc1ccc2nc(Cl)c(C3CC(c4cccs4)=NN3S(C)(=O)=O)cc2c1 (stereo not shown) | 24.3
75 | CN1CCN(C(=O)CN(C2CCCCC2)S(=O)(=O)c2ccc(Br)cc2)CC1 | -11.8
76 | CS(=O)(=O)N1CCC(C(=O)Nc2cccc(Br)c2)CC1 | -9.04
77 | Cc1onc(-c2ccccc2)c1C(=O)N/N=C/c1cc(Br)c(Br)o1 | -0.967
78 | O=C(COC(=O)c1cccnc1)c1ccc(Cl)cc1 | 4.51
79 | COC(=O)Nc1cc(C(=O)c2ccc(Cl)cc2Cl)c[nH]1 | 1.09
80 | COc1cc2cc(CN(CCCN3CCOCC3)C(=O)Nc3ccc(F)cc3)c(=O)[nH]c2cc1OC | -33.2
81 | COc1ccc(Cl)cc1C(=O)NCCN(C)C | 4.57
82 | CCOCCCNC(=S)NCCc1ccccc1 | 28.3
83 | Cc1cccc(Nc2nc(N)nc(CC(=O)CSc3ccc(Cl)cc3)n2)c1 | 4.27
84 | O=C(NCc1cccc(F)c1)C1CCC(=O)N(CCc2cccc(F)c2)C1 (stereo not shown) | -30.7
85 | Cl.O=C(c1cc2c(s1)CCCC2)N1CCN(Cc2ccc3c(c2)OCO3)CC1 | -54.2
86 | Cc1cc(C)c(NC(=O)C2CC(=O)N(c3ccc4c(c3)OCCO4)C2)c(C)c1 (stereo not shown) | -8.92
87 | CCOC(=O)C1=C(C)NC(C)=C(C(=O)OCC)C1c1ccc(OC)cc1 | -14.2
88 | CC(C)(C)C(=O)Nc1ccc(C(=O)CSc2nnc(C3CC3)n2C2CC2)cc1 | 3.48
